Assay results as given in ChEMBL document CHEMBL4888484, “Replenishing the malaria drug discovery pipeline: Screening and hit evaluation of the MMV Hit Generation Library 1 (HGL1) against asexual blood stage Plasmodium falciparum ,using a nano luciferase reporter read-out” (2022).
Out of some 150,000 compounds screened, about 540 (0.36%) showed an effect of 50% or more. The list shows a part of the results.

Test system: Plasmodium falciparum
Assay: Primary screen in NF54 nanoGlo assay, in single point, at 2uM, 72h; a lower Z score goes with more inhibition
Assay type: functional, Erythrocyte
Details: timepoint 72 hour

SMILES | % Inhibition [%] | Z score
Cc1ccc(F)cc1S(=O)(=O)N1CC(F)(F)C[C@H]1CN1CCc2ccccc2C1 | -7 | 1.21
CO/C=C(\Oc1ccccc1C)C(=O)Nc1ccccc1Cl | -29 | 3.43
CN(C)c1noc([C@H]2CCC(=O)N(C3CC3)[C@@H]2c2cncn2C)n1 | -8 | 1.5
Cc1ccc2c(c1)C(=O)N1CCCC1C(=O)N2CC(=O)NCC1CCCO1 (stereo not drawn) | -1 | 0.1
CCCNC(=O)CN(C)Cc1cn2cccc(C)c2n1 | -4 | 0.42
O=C(NCc1cccs1)N1CCCC1 | -15 | 1.97
Cc1c(C(=O)N2C[C@@H](CN(C)C)C[C@H](CO)C2)n(C)c2c(C)cccc12 | -13 | 2.26
Cc1ncc(CNC(=O)C(=O)Nc2cc(F)cc(F)c2)s1 | -2 | 0.39
Cc1cccc(CN2CCC[C@@]3(CCN(C(=O)CCCn4cncn4)C3)C2)c1 | -24 | 2.09
Cn1cccc1C1=NN(C(=O)CN(CCN2CCOCC2)C(=O)NC(C)(C)C)[C@H](c2ccc3c(c2)OCO3)C1 | -10 | 1.7
COC(=O)c1cc2c(cc1NC(=O)C1CCCCC1)OCO2 | -10 | 1.09
Cc1nc(C)c(F)c(NCC2(O)CCS(=O)(=O)CC2)n1 | -7 | 0.96
Cc1cc(F)ccc1S(=O)(=O)N1CCn2nccc2C1 | -3 | 0.49
CCc1ccc([C@@H]2COCCN2CCS(C)(=O)=O)o1 | -7 | 0.89
O=C1CCCN1CCCN(CC(=O)N1CCNCC1)C(=O)c1ccc(C(F)(F)F)cc1 | -6 | 0.56
Cc1cccc([C@H](CNC(=O)CCN2CCCCC2=O)N(C)C)c1 | -11 | 2.04
C[C@@H](c1cccc(-c2ccncc2)c1)N(C)CCn1cccn1 | -7 | 0.98
CC(C)NS(=O)(=O)N1CCN(C(=O)N[C@@H](C2CC2)C(F)(F)F)CC1 | 2 | -0.34
COc1ccc(-c2cnnc(-n3nc(C)c4c3NC(=O)C[C@@H]4c3ccccc3Br)n2)cc1 | 10 | -1.84
O=c1ccncn1CC1CCN(c2ncnc3[nH]cnc23)CC1 | -2 | 0.25
Cc1ccc(C(=O)N(C2CC2)C2CCN(C(=O)OC(C)(C)C)CC2)cc1S(C)(=O)=O | 6 | -1.04

SMILES | % Inhibition [%] | Z score
CCOc1cccc(-c2noc(Cn3c(=O)n(CCc4ccccc4)c(=O)c4sccc43)n2)c1 | -10 | 1.25
Cc1nonc1CC(=O)NCc1nc2c(C)cccc2o1 | -5 | 0.85
O=C(NCc1cccc(F)c1)c1cnn2c3c(cnc12)CCCCCC3 | -4 | 0.64
CC(C)NC(=O)C(C)Oc1ccc2c(c1)C(c1ccc(F)cc1)N(C(=O)C(C)C)CC2 (stereo not drawn) | 7 | -0.9
COCCn1cncc1Cn1c(=O)n(CC2CC2)c2ccc(C(=O)O)cc21 | 5 | -0.7
CN(C(=O)OC(C)(C)C)[C@@H](C(=O)O)c1cccc(Cl)c1Cl | 5 | -0.75
Fc1ccc(C#Cc2cncc(C#Cc3ccc(F)cc3)c2)cc1 | -7 | 0.98
CN1C(=O)[C@H](c2c(-c3ccc(Cl)cc3)[nH]c3[nH]c(=O)[nH]c(=O)c23)c2ccccc21 | -1 | 0.16
CC1(C)CC(NC(=O)c2ccc3[nH]c4c(c3c2)CCCC4)CC(C)(C)N1 | -3 | 0.35
C=C(C)C[C@H](C)C(=O)Nc1ccc(CO)c(CO)c1 | -15 | 2.91
CO[C@H]1C[C@H]2CC[C@@H](C1)N2C(=O)c1snnc1C(C)C | -7 | 1.16
COc1ccc(CCC(=O)N2CC[C@H](Oc3ccnc(C)n3)C2)cc1 | 0 | 0.07
CN(CC(=O)N(C)Cc1nnc(-c2ccccc2)o1)Cc1cccnc1 | -7 | 1.1
O=C(Nc1cc(C(F)(F)F)c[nH]c1=O)C(=O)N1CCCCCCC1 | 2 | -0.38
CC(C)C[C@@H](CO)N(C)C(=O)c1ccncc1 | -9 | 1.57
CCc1nc(NCc2cccnc2N2CCN(c3ccccn3)CC2)ncc1C | -3 | 0.37
Cc1cccc([C@H]2C(=O)NCCN2C(=O)Cc2ccc(C)c(O)c2)c1 | -6 | 0.72
NC(=O)c1ccnc(NCc2nc(-c3cccc(F)c3)c(-c3ccccn3)[nH]2)c1 | -10 | 1.73
CCN(CCc1nccs1)C(=O)c1cccc(C(=O)O)c1 | -9 | 0.87
CCN(CC)c1nnc(-c2ccc3c(c2)OCO3)n1C | -2 | 0.23
Cc1nnc(NC(=O)c2ccoc2)s1 | -7 | 1.02

SMILES | % Inhibition [%] | Z score
COc1ccc(-n2nc3c(N4CCC[C@H](C(=O)NCc5ccccc5C)C4)nnc(C)c3c2C)cc1 | 19 | -2.18
COc1ccc(-c2cn(C3CCN(c4ncccn4)CC3)nn2)cc1 | 6 | -1.17
COc1ccc(F)c(CN2CCC[C@@]3(CCN(C(=O)c4cn[nH]c4)C3)C2)c1 | 4 | -0.77
CCc1ncsc1NC(=O)c1ncccc1-n1ncc2ccccc21 | 1 | -0.22
CC(C)c1cc(C(=O)OCC(=O)N2CCNC2=O)c2ccccc2n1 | -17 | 2.24
CCCn1c(=O)c2ccccc2n(CC(=O)N2CCN(c3ccc(OC)cc3)CC2)c1=O | -5 | 0.7
Cn1nccc1C(=O)NCCCc1ccccc1 | -5 | 1.07
Cc1ccc(C)c(NC(=O)CN2C(=O)COc3ccc(C(=O)N4CCCC4)cc32)c1 | 1 | -0.07
CCN1CCN(c2c(CN(C(=O)Cc3ccccc3)C(C)C)c(C)nn2-c2cccc(F)c2)CC1 | -4 | 0.79
CC(=O)N1CC[C@H](Nc2ccc(C#N)nc2)c2ccc(F)cc2C1 | -9 | 0.94
CCN(CC1CCCO1)C(=O)C1CCN(C)C(=O)C1 (stereo not drawn) | -3 | 0.39
CC(C)N1CCC(N(C)CC2CCCOC2)C1=O (stereo not drawn) | -1 | 0.08
COC[C@H](NC(=O)c1cnn(C(C)C)c1)c1ccccn1 | 2 | -0.32
Cc1nc[nH]c1-c1cc(C(C)(C)C)nc(N)c1C#N | -8 | 1.45
CCn1cc(S(=O)(=O)NCCN2CCCC[C@@H]2CO)cn1 | -17 | 1.61
Cc1cc(C#N)c(N2CCO[C@H](C3CC3)C2)nc1C | 5 | -0.99
O=C(N[C@H](c1ccccc1)C1CCC1)N(CCO)C1CC1 | -6 | 0.83
Cc1cccc(NC(=O)N2CCN(CCn3c(C)nc4cccnc43)CC2)c1C | -8 | 1.04
COc1ccc(N2C[C@@H](NC(=O)c3ccc(S(=O)(=O)N4CCOCC4)cc3)CC2=O)cc1OC | -9 | 1.64
Brc1ccc(-c2ccc(-c3nnc(-c4ccco4)o3)o2)cc1 | -7 | 1
CCC=C(C)C(=O)NCCc1nccs1 | -1 | 0.1

SMILES | % Inhibition [%] | Z score
CCc1noc(C)c1C(=O)N(CC)c1cccnc1C | 3 | -0.49
Cc1ccc(F)c(NC(=O)c2ccc(Cn3cc(Br)cn3)o2)c1 | 4 | -0.5
Cc1cnc(CNC(=O)[C@H]2CC(=O)OC23CCCC3)cn1 | -7 | 1.32
CCc1nc(C)c(C(=O)N[C@@H](C)C(=O)Nc2ccc(F)cc2C)o1 | -3 | 0.49
CC[C@H](C)N(Cc1c(C(C)C)nn(-c2ccccc2)c1N(C)C)C(=O)C(C)C | -13 | 2.15
Cc1noc(C)c1CN(C)C(=O)c1n[nH]c2c1COCC2 | -24 | 2.62
O=C1C(N2C(=O)[C@H]3CCCN3C2=O)CCN1CCCc1ccccc1 (stereo partly drawn) | 7 | -0.83
CCCc1nnsc1C(=O)N[C@@H]1C[C@H]2C(=O)N(C)CC(=O)N2C1 | -4 | 0.39
C=CCOc1nc2c(cc1C#N)CCC2 | 2 | -0.32
Cc1cc(C)cc(CCNS(C)(=O)=O)c1 | -12 | 2.27
CCNc1nc(C)c(C(=O)N2CCOC(C)(C)C2)s1 | -6 | 1.01
CN(CCC1OCCO1)[C@@H](C(N)=O)c1cccc(F)c1 | 4 | -0.41
COc1ccc([C@@H](NCC#N)C(F)(F)F)cc1F | 2 | -0.25
CCN1CCC(CC(=O)NC[C@H](O)c2ccc(F)cc2)CC1 | -4 | 0.68
COc1ccc(CC(=O)Nc2cnn(-c3ncc(N(C)C)cn3)c2)c(Cl)c1 | -12 | 1.91
Cc1ccn2c(C(=O)N3C[C@]4(C)C[C@H]3CC(C)(C)C4)nnc2n1 | -6 | 0.78
Fc1ccc2sc(CCNc3ncc(Br)cn3)nc2c1 | -4 | 0.7
Cc1cc(Cl)ccc1OCc1nc(-c2ccc(S(=O)(=O)N3CCOCC3)cc2)no1 | 0 | 0.07
Cc1cccc(-c2noc(N3CCOCC3)c2CN(Cc2ccccc2)C(=O)c2cccc(F)c2)c1 | 3 | -0.36
O=c1nc(Nc2ccc(N3CCCCC3)cc2)cn[nH]1 | -2 | 0.3
COC(=O)[C@H](CO)NC(=O)C1Cc2ccccc2N(C)C1 (stereo partly drawn) | -1 | 0.1
